# According to the RNAGym collection of RNA variant scans (doi:10.1093/nar/gkz1192):
# Read counts are not given, so values of variants with three or more changes are uncertain.
# B1: CPEB3 Ribozyme (parent)
# chain: UAACAGGGGGCCACAGCAGAAGCGUUCACGUCGCAGCCCCUGUCAGAUUCUGGUGAAUCUGCGAAUUCUGCUGUAUAUCUC
# Variants of: B1
# Assay: self-cleavage, relative activity (ratio to wild type); higher = more cleavage; in vitro, sequencing
# Summary of the method: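 CPEB3 self-cleaving ribozyme mutant libraries were made by rounds of error-prone PCR, barcoded, and transcribed in vitro with T7 RNA polymerase for 5 hours at 37°C. Cleavage occurred during transcription and a 15 min DNase I step before EDTA stop. RNAs were reverse transcribed with template switching and Illumina-sequenced, with DNA sequencing mapping barcodes to variants. Relative activity is the variant's cleaved/total read fraction divided by wild type's (minimum 5 reads), averaged across three batches.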
row,Variant,self-cleavage
1,UAACAGGGGGCCACAGCAGGAGCGUUCACGUCGCAGCUCCUGUCAGAUUCUGGUGAAUCUGCGAACUCUGCUGUAUAUCUC,0.15
2,UAACAGGGGGCCACAGCAGGAGCGUUCACGUCGCAGCCACUGUCAGAUUCUGGUGUAUCUGCGAAUUCUGCUGUAUAUCUC,0.08
3,UAACAGGGGGCCACAGCAGGAGCGUUCACGUCGCAGCCACUGUCAGAUUCUGGUGAAUCUGCGAAUUCUGCUGUAUACCUC,0.27
4,UAACAGGGGGCCACAGCAGGAGCGUUCACGUCGCAGCCGCUGUCAGAUUCAGGUGAAUCUGCGGAUUCUGCUGUAUAUCUC,0.15
5,UAACAGGGGGCCACAGCAGGAGCGUUCACGUCGCAGCCUCUGUCAGAUCCUGGUGAAUCCGCGAAUUCUGCUGUAUAUCUC,0.08
6,UAACAGGGGGCCACAGCAGGAGCGUUCACGUCGCAGCCCAUGUCUGAUUCUGGUGAAUCUGCGAAUUCUGCUGUAUAUCUC,0.22
7,UAACAGGGGGCCACAGCAGGAGCGUUCACGUCGCAGCCCUUGUCAGAUUCUGGUGAACCUGCGAAUUCUGCUGUAUUCCUC,0.08
8,UAACAGGGGGCCACAGCAGGAGCGUUCACGUCGCAGCCCUUGUCAGAUUCUGGUGAAUCUGCGAAUUCUGCUGUAUACCUC,0.36
9,UAACAGGGGGCCACAGCAGGAGCGUUCACGUCGCAGCCCCUGUCAGAUUACUGUGAAUCCGCGAAUUCAGCUGUAUAUCUC,0.3
10,UAACAGGGGGCCACAGCAGGAGCGUUCACGUCGCAGCCCCUGUCAGAUUAUGGGGAAUCUGCGAAUUCUGCUGUAUAUCUC,0.25
11,UAACAGGGGGCCACAGCAGGAGCGUUCACGUCGCAGCCCCUGUCAGAUUCUGGUGAAUCUGGGAAUUCUUCUGUAUAUCUC,0.35
12,UAACAGGGGGCCACAGCAGGAGCGUUCACGUCGCAGCCCCUGUCAGAUUCUGGUGAAUCUGUGAAUACUGCUGUAUAUCUC,0.21
13,UAACAGGGGGCCACAGCAGGAGCGUUCACGUCGCAGCCCCUGUCAGAUUCUGGUGAAUCUGCGAAUUCUGUUGUAUAUCCC,0.98
14,UAACAGGGGGCCACAGCAGGAUCGUUCACGUCGCAGCCCAUGUCAGAUUCUGGUGAAUCUGCGAAUUCUGCUGUAUAUCUC,0.31
15,UAACAGGGGGCCACAGCAGGAUCGUUCACGUCGCAGCCCCUGUCAGAUUCUGGUGAAUCUCCGAAUUCUGCUGUAUAUCUC,0.21
16,UAACAGGGGGCCACAGCAGGAGCAUUCGCGUCGCAGCCCCUGUCAGAUUCUGGUGAAUCUGCGAAUUCUGCUGUAUAUCUC,0.12
17,UAACAGGGGGCCACAGCAGGAGCAUUCGCGCCGCAGCCCCCGUCAGAUUCUGGUGAAUCUGCGAAUUCUGCUGUAUAUCUC,0.27
18,UAACAGGGGGCCACAGCAGGAGCAUUCACGUCGCAGCCCCUGUUAGAUUCUGGUGAAUCUGCGAAUUCUGCUGUAUAUCUC,0.09
19,UAACAGGGGGCCACAGCAGGAGCACUCACGUCGCAGCCCCUAUCAGAUUCUGGUGGAUCUCCGUAUUCUGCUGUAUAUCUC,0.19
20,UAACAGGGGGCCACAGCAGGAGCAUUCACGUCGCAGCCCCAGUCAGAUUCUGGUGAAUCCGCGAAUUCUGCUGUACAUCUC,0.13
21,UAACAGGGGGCCACAGCAGGAGCAUUCACGUCGCAGCCCCUGUCAGAUCCUGGUGAAUCUGUGAAUUCUGCAGUAUAUCUC,0.08
22,UAACAGGGGGCCACAGCAGGAGCCUUCACGUCGCUGCCCUUGCCAGAUUCUGGUGAAUCUGCGAAUUCUGCUGUAUAUCUC,0.09
23,UAACAGGGGGCCACAGCAGGAGCCUUCACGUCGCAGCCCCUGUCAGAUUCUGGUGUAUCUGCGAAUUCUGCUGUAUAUCUC,0.2

row,Variant,self-cleavage
1,UAACAGGGGGCCACAGCAGGAGCCUUCACGUCACAGCCCCUGUCAGAUUCUGGUGAAUCUGCGAAUUCUGCUGUAUAUCUC,0.18
2,UAACAGGGGGCCACAGCAGGAGCCUUCACGCCGCAGCCCCUGUCAGAUUCUGGUGAUUCUGCGAAUUCUGCUGUAUACCUC,0.08
3,UAACAGGGGGCCACAGCAGGAGCCUUCACGUCGCAGCCCCAGUCAGAUUCUGGUGAAUCUGCGAACCCUGCUGUAUAUCUC,0.11
4,UAACAGGGGGCCACAGCAGGAGCGUUCACAUCGCAGCCCCUGUCAGAUUCUGGUGAAUCUGCGAACUCUGCUGUAUAUCUC,0.11
5,UAACAGGGGGCCACAGCAGGAGCGUUCACAUCGCAGCCCCUGUCAGAUUCUGGUGAAUCUGCGAAUUCUGCCGUAUAUCUC,0.08
6,UAACAGGGGGCCACAGCAGGAGCGUUCACCUCGCAGCCUCAGUCAGAUUCUGGUGAAUCUGUGAAUUCUGCUGUAUAUCUC,0.1
7,UAACAGGGGGCCACAGCAGGAGCGUUCACUUCGCAGCCCCGGUCAGGUUCUGGUGAAUCUGCGAAUUCUGCUGUACAUCUC,0.21
8,UAACAGGGGGCCACAGCAGGAGCGUUCACGUCACGGCCCCUGUCAGAUUCUGGUGAAUCUGCGAAUUCUGCCGUAUAUCCC,0.1
9,UAACAGGGGGCCACAGCAGGAGCGUUCACGUCACAGCCCCUGUCAGGCUCUGGUGAAUCUGCGAAUUCUGCUGCAUAUCUC,0.14
10,UAACAGGGGGCCACAGCAGGAGCGUUCACGUCACAGCCCCUGCCAGAUCCUGGUGAAUCUGCGAAUUCUGCUGUAUAUCUC,0.09
11,UAACAGGGGGCCACAGCAGGAGCGUUCACGUCACAGCCCCUGUCAGACUCUGGUGUACCUGCGAAUUCUACUGUAUAUCUC,0.03
12,UAACAGGGGGCCACAGCAGGAGCGUUCACGUCACAGCCCCUGUCAGAUCCUGGUGAAUAUGCGAAUUCUGCUGUAUAUCUC,0.07
13,UAACAGGGGGCCACAGCAGGAGCGUUCACGUCUCAGCCCCUGUCAGACUCUGGUGAAUCUGCGAAUUCUGCUGUAUAUCUC,0.09
14,UAACAGGGGGCCACAGCAGGAGCGUUCACGUCGCAACCCCUGUCAGAUUCUGGUGAAUCUGCGAAUUCUGCUGUAUACCUC,0.27
15,UAACAGGGGGCCACAGCAGGAGCGUUCACGUCGCAGCCCCUAUCAGGUUCUGGUGAGUCUGCGAAUUCUGCUGUAUAUCUC,0.08
16,UAACAGGGGGCCACAGCAGGAGCGUUCACGUCGCAGCCCCUAUCAGAUUCUGGUGAAUCUGCGAAUUCUGCUGUACAUCUC,0.29
17,UAACAGGGGGCCACAGCAGGAGCGUUCACGUCGCAGCCCCUCUCAGAUUCUGGUGAAUCUGCAAAUUCUGCUGUAUAUCUC,0.15
18,UAACAGGGGGCCACAGCAGGAGCGUUCACGUCGCAGCCCCUUUCGGGUUCUGGUGAAUCUGCGAAUUCUGCUGUAUAUCUC,0
19,UAACAGGGGGCCACAGCAGGAGCGUUCACGUCGCAGCCCCUGUCAUGUUCUGGUGAAUCCGCGAAUCCUGCUGUAUAUCUC,0.08
20,UAACAGGGGGCCACAGCAGGAGCGUUCACGUCGCAGCCCCUGUCAUAUUCCGGUGAAUCUGCGAAUUCUGCUGUAUAUCUC,0.21
21,UAACAGGGGGCCACAGCAGGAGCGUUCACGUCGCAGCCCCUGUCAGAUUCUAGUGAGUCUGCGAAUUCUGCUGUAUAUCUC,0.63
22,UAACAGGGGGCCACAGCAGGAGCGUUCACGUCGCAGCCCCUGUCAGAUUCUAGAGAAUCUGCAAAUUCUGCUGUAUAUCUC,0.78
23,UAACAGGGGGCCACAGCAGGAGCGUUCACGUCGCAGCCCCUGUCAGAUUCUAGUGAACCUGCGAAUUCUGCUGUAUAUCUC,0.25

row,Variant,self-cleavage
1,UAACAGGGGGCCACAGCAGGAGCGUUCACGUCGCAGCCCCUGUCAGAUUCUGGUAAAUCUGGGAAUUCUGCUGUAUAUCUC,0.13
2,UAACAGGGGGCCACAGCAGGAGCGUUCACGUCGCAGCCCCUGUCAGAUUCUGGUUAAUCCGCGAAUUCUGCCGUAUAUCUC,0.18
3,UAACAGGGGGCCACAGCAGGAGCGUUCACGUCGCAGCCCCUGUCAGAUUCUGGUGAAUCUGCGAAUUCUCCCGUAUAUCUC,0.28
4,UAACAGGGGGCCACAGCAGGAGCGAUCACGUCGCAGCCCCUGUCAGAUUCUGGUGAAUCUGCGUAUUCUGCUGUAUAUCUC,0.19
5,UAACAGGGGGCCACAGCAGGAGCGAUCAGGUCGCAGCCCCUGUCAGUUUCUGGUGAGUCUGCGAGUUCUGCCGUAUAUCUC,0.05
6,UAACAGGGGGCCACAGCAGGAGCGAUCACCUCGCGGCCCCUGUCAGAUUCUGGUGAAUCUGCGAAUUCUGCUGUAUAUCCC,0.37
7,UAACAGGGGGCCACAGCAGGAGCGAUCACGUCACAGCCCCUGUCAGAUUCUGGUGAACCUGCGAAUUCUGCUGUAUGUCUC,0.03
8,UAACAGGGGGCCACAGCAGGAGCGAUCACGUCGCAGCCCCUGUCAGAUUCUGCUGAAUCUGCGAAUUCUGCUGUAUAUCUC,0.25
9,UAACAGGGGGCCACAGCAGGAGCGACCACGUCGCAGCCCCUGUCAGAUUCAGGUGAAACUGCGAAUUCUGCAGUAUAUCUC,0.15
10,UAACAGGGGGCCACAGCAGGAGCGAUCACGUCGCAGCCCCCGUCGGAUUCUGGUGAAUCUGCGAAUUCUGCUGUAUAUCUC,0.06
11,UAACAGGGGGCCACAGCAGGAGCGAUCACGUCGCAGCCCCCGCCAGAUUCUGGUGAAUCUGCGAAUUCUGCUGUAUAUCUC,0.32
12,UAACAGGGGGCCACAGCAGGAGCGAUCACGUCGCAGCCCCUGACAGAUUCUGGUGAAUCAGCGAAUUCUGCUGUAUAUCUC,0.08
13,UAACAGGGGGCCACAGCAGGAGCGAUCACGUCGCAGCCCCUGUCAGAUUCGGGUGAAUCUGCGAAUUCUGCUGUAUAUCUC,0.1
14,UAACAGGGGGCCACAGCAGGAGCGAUCACGUCGCAGCCCCUGUCAGAUUCGGGUGAAUCUGCGGAUUCUGCUGUAUAUCUC,0.06
15,UAACAGGGGGCCACAGCAGGAGCGAUCACGUCGCAGCCCCUGUCAGAUUCUGGUGAAUCUGCGAAUUCAGCUGUAUAUCUC,0.45
16,UAACAGGGGGCCACAGCAGGAGCGCUCGCGUCGCAGCCCCUGUCAGAUCCUGGUGAAUCUGCGAAUCCUGCUGUAAAGCUC,0
17,UAACAGGGGGCCACAGCAGGAGCGCUCACGUCGCGGCACCUGUCAGAUUCAGGUGAAUCUGCGAAUUCUGCUGUAUAUCUC,0.08
18,UAACAGGGGGCCACAGCAGGAGCGCUCACGUCGCUGCCCCUGUCAGAUUCUGGGGAAUCUGCGAAUUCUACUAUAUAUCUC,0.1
19,UAACAGGGGGCCACAGCAGGAGCGCUCACGUCGCAGCCCCUGUCCGAUUCUGGUGAAUCUGCGAAUUCUGCCGUAUACCUC,0
20,UAACAGGGGGCCACAGCAGGAGCGCUCACGUCGCAGCCCCUGUCGGAUUCUGGUGAAUCCGCGAAUUCUGCUGUAUAUCUC,0.15
21,UAACAGGGGGCCACAGCAGGAGCGCUCACGUCGCAGCCCCUGUCGGAUUCUGGUGAAUCUGCGAAUUCCGCUGUAUGUCUC,0.05
22,UAACAGGGGGCCACAGCAGGAGCGCUCACGUCGCAGCCCCUGUCAGCUUCUGGUGGAUCUGCGAAUUCUGCUGUAUAUCUC,0.29
